Results: PubChem BioAssay AID434955 (Southern Research Specialized Biocontainment Screening …, 2010)
The other results are listed elsewhere or left out. Further columns of the screen follow, without active or inactive calls. Compounds called inactive in the main read-out are mostly missing here.

Assay: beta-lactam sensitization of Mtb H37Rv, H37Rv (AID 434955);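 note: growth measured after seven days incubation then overnight dye step; 0% = bacteria only wells and 100% = bacteria with antibiotic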
Conditions: M. tuberculosis H37Rv growth with meropenem, percent inhibition; measured here: primary screen without meropenem; at 25 µM

| SMILES | inhibition [%] |
| --- | --- |
| CCn1c2ccccc2c2cc(/C=N/NC(=O)c3cccc(C)c3)ccc21 | -6.93 |
| COc1ccc(NC(=O)CSc2ccc3nnc(-c4ccccn4)n3n2)c(OC)c1 | 5.64 |
| O=C(CSc1nnc(-c2ccco2)n1-c1ccccc1)NCc1ccc2c(c1)OCO2 | -1.79 |
| CCOc1cccc(/C=N/Nc2nc(N3CCCC3)nc(N3CCCC3)n2)c1O | 26.6 |
| O=C1C2C3C=CC(C3)C2C(=O)N1c1cccc(N2C(=O)C3C4C=CC(C4)C3C2=O)n1 (stereo not given) | 1.59 |
| CCn1cc(S(=O)(=O)c2ccc(OC)cc2)c(=O)c2cc(F)c(N3CCN(C)CC3)cc21 | -0.41 |
| CCCc1cc(N2CCOCC2)n2nc(C)c(-c3ccccc3)c2n1 | -0.6 |
| CC12CCCC[C@@H]1CCC1C2CCC2(C)C1CC[C@@]2(O)CNCCO (stereo not given in full) | 40.9 |
| Cc1cc(C)cc(OCC(=O)OCC(=O)c2cc(C)n(C3CC3)c2C)c1 | 54.3 |
| C=C(C)Cn1c(SCC(=O)N/N=C/c2c(O)ccc3ccccc23)nc2ccccc2c1=O | -0.8 |
| Cc1ccc(N=Cc2c(O)ccc3ccccc23)cc1F | 12.8 |
| CCN(CC)S(=O)(=O)c1ccc2[nH]c(=O)cc(C(=O)Nc3ccccc3N3CCCC3)c2c1 | 3.07 |
| CC1Oc2ccccc2N(CC(=O)N(Cc2ccccc2)Cc2ccccn2)C1=O (stereo not given) | 2.63 |
| O=C(Nc1ccccc1F)C1CCCN(S(=O)(=O)c2cccc3cccnc23)C1 (stereo not given) | -7.93 |
| O=C(C1=C[C@H](c2ccc(Br)cc2)C[C@H](OCCCCO)O1)N1CCN(Cc2ccc3c(c2)OCO3)CC1 | 37 |
| Cc1cccc(CNC(=O)C2CCC(=O)N(C3CCCCCC3)C2)c1 (stereo not given) | 10.8 |
| Cc1ccc(C)c(S(=O)(=O)NC(C)C(=O)NCc2ccccn2)c1 (stereo not given) | 7.68 |
| Nc1ccc(N=Nc2ccccc2O)c(N)c1 | 11.2 |
| O=C(NC1CCCCC1)C1CCN(c2nccs2)CC1 | 39 |
| Cc1ccc(NC(=O)c2nc[nH]c2C(=O)NCc2ccccc2)cc1 | 50.8 |
| CNC(C)C(=O)NC(C(=O)N1CCCC1C(=O)NNc1ccccc1)C(C)C (stereo not given) | 72.1 |
| Cc1ccc(C)c(Cn2nnc3c(=O)[nH]c(C(=O)NCc4ccco4)nc32)c1 | -0.21 |
| C=CCn1cc(CN2CCC(C(=O)Nc3cccc(-c4cccc(F)c4)c3)CC2)c(C)n1 | 6.05 |
| COc1ccccc1-c1cc(C(=O)N/N=C/c2ccoc2)c2ccccc2n1 | 3.93 |
| Cc1ccc2occ(/C=C/C(=O)c3ccccc3O)c(=O)c2c1 | 14.2 |
| COc1cc(Cl)ccc1OCc1cc(C(=O)N2CCCC(OC)C2)no1 (stereo not given) | 3.36 |
| Cc1ccccc1N(Cc1cc(=O)[nH]c2ccccc12)C(=O)CCl | -3.84 |

| SMILES | inhibition [%] |
| --- | --- |
| CCN(CCn1cccn1)C(=O)CC1C(=O)NCCN1CCc1ccccc1 (stereo not given) | -0.61 |
| CN1C2CCC1CC(OC(=O)c1ccc([N+](=O)[O-])cc1)C2 (stereo not given) | -3.6 |
| Cc1ccc(N2CC(C)Cn3c2nc2c3c(=O)[nH]c(=O)n2C)cc1C (stereo not given) | 4.12 |
| CC1CN(C(=O)CCC(=O)NCc2ccccc2Cl)c2ccccc2S1 (stereo not given) | 1.51 |
| COc1ccc(C(=O)C(C)Oc2cccc(NC(=O)c3cccc([N+](=O)[O-])c3)c2)cc1 (stereo not given) | 3.24 |
| COc1cccc2c1cc1c(=O)n(CC(=O)N3CCC(C)CC3)nc(C)n12 | 3.22 |
| COc1ccc(NC2CCCN(C(=O)CSc3ccccc3)C2)cc1OC (stereo not given) | 5.74 |
| C=CCC1(CC=C)CCCN1C(=O)C1CCC(=O)N(CCc2ccccc2)C1 (stereo not given) | 3.06 |
| Cc1ccc(SC(C)C(=O)Nc2ccccc2-c2ccccc2)cc1 (stereo not given) | 8.42 |
| CC1=NC(=O)C(N=Nc2cccc(C(=O)O)c2)N1c1ccccc1 (stereo not given) | 21 |
| COc1ccccc1N1CCN(C(=O)c2cc(-c3ccc(Cl)c(Cl)c3)on2)CC1 | 6.22 |
| COc1ccc(CCNC(=O)CN2CCOc3ccccc32)cc1OC | -9.11 |
| CC(=O)Nc1cccc(/C(C)=N/NC(N)=S)c1 | -6.1 |
| CSc1c(C#N)c(N)c(C#N)c2c1COC(C)(C)C2 | -11.2 |
| CC1=C(C(=O)N2CCN(C(=O)c3ccco3)CC2)C2(CCC(C)CC2)OC1=O (stereo not given) | -10.8 |
| CCCn1nnnc1NC(=O)COc1ccc(Cl)cc1C | 37.7 |
| Cc1cc(C)cc(NC(=O)c2cc(Cl)sc2Cl)c1 | 39.8 |
| O=C1c2[nH]nc(-c3ccccc3O)c2C(c2ccc(F)cc2)N1CC1CCCO1 (stereo not given) | -0.5 |
| CCOC(=O)c1c(-c2ccccc2)oc2cc(Br)c(O)c(C=O)c12 | -5.4 |
| O=S1CCCSC1c1cccnc1 (stereo not given) | 1.16 |
| Cn1nc(-c2ccc(OCC(=O)NCC3CCCO3)cc2)c2ccccc2c1=O (stereo not given) | -3.14 |
| CCN(CC)C(=O)COc1ccc(-c2nnc(Nc3ccc(OC)c(C(=O)NC)c3)c3ccccc23)cc1 | 5.29 |
| CCc1ccc(CNC(=O)c2ccc3nc(C4CCCCC4)oc3c2)nc1 | 89.5 |
| COc1cc(OC)cc(-c2nnc(NC(=O)CCS(=O)(=O)c3ccc(C)cc3)o2)c1 | 35.3 |
| C[C@H](NC(=O)c1[nH]cnc1C(=O)Nc1ccc(Cl)cc1)C(=O)OC(C)(C)C | 40.9 |
| CCOC(=O)c1ccccc1NC(=O)C1COc2ccccc2O1 (stereo not given) | 30.4 |
| COC(=O)CN1C(=O)C(O)=C(C(C)=O)C1c1ccc([N+](=O)[O-])cc1 (stereo not given) | -2.53 |

| SMILES | inhibition [%] |
| --- | --- |
| O=C1C(Cl)=C(N2CCCCCC2)C(=O)N1c1ccc(Br)cc1 | 13.2 |
| Cc1ccc(S(=O)(=O)Oc2ccc(/C=N/N=C3/NC(=O)C(CC(=O)O)S3)cc2)cc1[N+](=O)[O-] (stereo not given) | 2.19 |
| COc1ccc(-n2ncc3c2CC(C)(C)CC3NC(=O)c2ccoc2C)cc1 (stereo not given) | 9.65 |
| O=C(NCc1ccccn1)c1cc(-c2ccc(Cl)cc2)nc2ccccc12 | 5.14 |
| CCN(CC)S(=O)(=O)c1ccc(OC)c(NC(=O)COc2ccc3c(C)cc(=O)oc3c2)c1 | 17 |
| COc1cccc(CNC(=O)C(Cc2ccccc2)n2cccc2)c1 (stereo not given) | 31.3 |
| CN(C)c1ccc(/C=N/n2c(C3CCCCC3)n[nH]c2=S)cc1 | 10.7 |
| Cc1ccc(OCC(=O)Nc2ccc3c4c(cccc24)CC3)c(C)c1 | 14.8 |
| CCOc1ccc2nc(NC(=O)c3cnccn3)sc2c1 | 34 |
| N#CCn1cnc2c(oc3ccccc32)c1=O | 1.67 |
| Cc1c(C(c2cccc([N+](=O)[O-])c2O)c2c(C)n(C)n(-c3ccccc3)c2=O)c(=O)n(-c2ccccc2)n1C | -2.97 |
| c1ccc(CCn2nnnc2CN2CCC(n3nnc4ccccc43)CC2)cc1 | -4.32 |
| O=C(CCC1N=C2c3ccccc3N=C(SCc3ccc(Cl)cc3)N2C1=O)NCc1ccco1 (stereo not given) | 94.5 |
| Cc1nc(CC(=O)Nc2nc(C(C)(C)C)cs2)cs1 | -0.68 |
| CN(C)S(=O)(=O)c1ccc(C(=O)NCc2cccs2)cc1 | -2.86 |
| CCCCOc1ccc(NC2=NC3(CCCCC3)N=C(N)N2)cc1 | 31.6 |
| O=S(=O)(c1ccc(F)cc1)c1nc(-c2ccccc2)oc1N1CCOCC1 | 0.17 |
| CCn1cc(C(=O)NN)c(=O)c2cc(F)c(N3CCOCC3)cc21 | 2.7 |
| O=C(CNC(=O)c1ccco1)NCc1nc2ccccc2[nH]1 | -5.96 |
| CCc1ccccc1NC(=O)c1ccc(F)c(S(=O)(=O)N2CCC(C(N)=O)CC2)c1 | -6.83 |
| CC1Cc2ccccc2N1C(=O)CSc1nnc(CSc2ncccn2)n1C (stereo not given) | 5.82 |
| O=C1CCC(C(=O)N2CCC(CO)CC2)CN1Cc1ccc(Cl)cc1 (stereo not given) | 2.86 |
| COc1cccc2c(C)nc(Nc3nc(CSc4nnc(C)s4)cc(=O)[nH]3)nc12 | 11.4 |
| CN(CC(=O)NCc1ccncc1)S(=O)(=O)c1ccc(Br)cc1 | 6.44 |
| COc1ccc(N=c2oc3cc(O)ccc3cc2C(=O)NCC2CCCO2)c(OC)c1 (stereo not given) | -6.93 |
| CC(=O)NCCn1c(SCc2ccccc2C)nc2ccccc2c1=O | -7.92 |
| O=C(NNC(=O)c1ccccc1F)c1cccc(Cl)c1 | -1.93 |

| SMILES | inhibition [%] |
| --- | --- |
| CCCc1nc(SCC(=O)N2CCCCCC2)c2c(=O)n(C)c(=O)n(C)c2n1 | -2.54 |
| O=S(=O)(Cc1ccccc1)c1cnc2ccccc2n1 | 21.1 |
| COc1ccc(S(=O)(=O)Oc2cccc(C(=S)N3CCOCC3)c2)cc1 | 8.61 |
| O=C(c1ccc(OC2CCN(Cc3ccccn3)CC2)cc1)N1CCC[C@H]1CO | 11.6 |
| COc1ccc(-c2c(O)c(C#N)c(-c3ccccc3)n(-c3ccc(OC)cc3)c2=O)cc1 | -12.8 |
| Cc1cc(Br)cc2c(C(=O)NCC3CCCO3)cc(-c3ccccc3)nc12 (stereo not given) | 1.89 |
| O=C(NC(Cc1ccccc1)C(=O)N1CCC2(CC1)OCCO2)C1CCCCC1 (stereo not given) | -0.62 |
| C[C@H]1C=CC(=O)O[C@H]1c1ccccc1 | 6.93 |
| O=C(CN1C(=O)COc2ccc(S(=O)(=O)N3CCCCCC3)cc21)NCc1ccc(F)cc1 | 5.82 |
| COC(=O)Cn1nc(-c2ccccc2)c2ccccc21 | 31.4 |
| COC(=O)c1cc(S(=O)(=O)NCc2ccc(F)cc2)cn1C | -8.09 |
| O=C(c1cc2ccccc2oc1=O)N1CCN(c2ncccn2)CC1 | 2.88 |
| CCC(=O)Nc1ccc2nc(SCC(=O)N3CCCC3)sc2c1 | 6.48 |
| COc1ccc(-c2nnc(SCC(=O)N3CCCCC3)o2)cc1OC | -6.08 |
| C=CCN1CCN(c2ccncc2S(=O)(=O)N2CCCCC2)CC1 | -11.5 |
| CCOc1cc(/C=N/n2c(COc3ccccc3)n[nH]c2=S)ccc1O | 0 |
| Cc1cccc(NC(=O)C2CCN(S(=O)(=O)c3cccs3)CC2)c1 | 5.05 |
| CCCN(CCC)C(=O)Cn1c(=O)c2sccc2n2c(=S)sc(-c3ccccc3)c12 | -0.8 |
| Cn1c(SCC(=O)NCc2cccs2)nnc1-c1ccco1 | 2.61 |
| O=C(Nc1ccc(N2CCCCC2)cc1)c1cc([N+](=O)[O-])cc([N+](=O)[O-])c1 | 15.2 |
| CN(C)CCOC(C1CCCCC1)C1CCCCC1 | 5.75 |
| COc1cccc(/C=N/NC(=O)NC23CC4CC(CC(C4)C2)C3)c1O | 9.73 |
| CC(C)CN(C(=O)COc1ccc(-c2nnco2)cc1)C1CCS(=O)(=O)C1 (stereo not given) | 0.91 |
| Cc1cccc(Nc2nc(N)c(C#N)c(CC#N)c2C#N)c1 | -7.61 |
